Results as given in publication PMC4336329 (PLoS ONE, 2015).
The whole screen tested about 310,000 compounds, of which about 14,000 (4.5%) showed an effect of 50% or more. Effects have a minus sign here. This is one part of the list.

Each compound was assayed against human ether-à-go-go-related gene (hERG) potassium channel (human, UniProt Q12809) (assay: primary screen, population patch clamp on CHO cells stably expressing hERG).
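Note: peak tail current of the secondary pulse compared with the same well before compound.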

human ether-à-go-go-related gene (hERG) potassium channel, sequence (Q12809 whole entry, looked up): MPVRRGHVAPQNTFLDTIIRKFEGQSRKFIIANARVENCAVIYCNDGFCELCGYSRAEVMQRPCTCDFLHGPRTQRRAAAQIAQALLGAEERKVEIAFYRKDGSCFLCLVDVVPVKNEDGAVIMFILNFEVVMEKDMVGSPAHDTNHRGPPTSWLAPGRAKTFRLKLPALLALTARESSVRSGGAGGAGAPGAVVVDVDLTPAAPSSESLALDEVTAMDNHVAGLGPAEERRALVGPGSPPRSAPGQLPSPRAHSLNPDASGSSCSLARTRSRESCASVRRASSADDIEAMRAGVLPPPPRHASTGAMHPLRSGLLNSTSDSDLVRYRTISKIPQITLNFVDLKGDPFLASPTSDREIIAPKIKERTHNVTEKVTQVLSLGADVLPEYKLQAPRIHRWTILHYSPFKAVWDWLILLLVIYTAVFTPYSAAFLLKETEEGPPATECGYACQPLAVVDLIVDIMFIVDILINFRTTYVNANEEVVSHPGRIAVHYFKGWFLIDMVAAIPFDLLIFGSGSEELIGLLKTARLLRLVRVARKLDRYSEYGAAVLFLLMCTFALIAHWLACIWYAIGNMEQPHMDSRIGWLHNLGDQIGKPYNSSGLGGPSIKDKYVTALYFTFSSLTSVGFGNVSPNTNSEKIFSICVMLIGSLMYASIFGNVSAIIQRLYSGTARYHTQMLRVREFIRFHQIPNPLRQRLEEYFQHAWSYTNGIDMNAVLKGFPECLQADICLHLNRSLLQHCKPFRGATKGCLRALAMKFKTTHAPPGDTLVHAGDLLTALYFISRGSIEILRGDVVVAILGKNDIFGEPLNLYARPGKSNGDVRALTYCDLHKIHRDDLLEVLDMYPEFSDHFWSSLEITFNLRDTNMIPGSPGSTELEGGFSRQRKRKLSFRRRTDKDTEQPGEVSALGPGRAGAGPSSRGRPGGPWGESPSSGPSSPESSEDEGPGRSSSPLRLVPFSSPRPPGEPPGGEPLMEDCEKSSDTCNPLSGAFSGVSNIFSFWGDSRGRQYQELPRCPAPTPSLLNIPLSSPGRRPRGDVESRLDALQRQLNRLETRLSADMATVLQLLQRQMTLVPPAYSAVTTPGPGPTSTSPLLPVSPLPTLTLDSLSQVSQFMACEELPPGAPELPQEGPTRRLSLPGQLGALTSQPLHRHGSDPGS

First: CC1CCCN(C(=O)COC(=O)Cc2c(F)cccc2Cl)C1 (centres unmarked)
Second: CC(NC(=O)C1CCCN(C(=O)N(C)C)C1)c1ccccc1 (centres unmarked)
The “hERG current change (%, negative = inhibition) at 10uM” value of the first is higher: 4.8% for the first, 4.5% for the second.

First: CON(C)S(=O)(=O)c1ccc2c(c1)NC(=O)C1CCCN21 (centres unmarked)
Second: COc1cc(S(=O)(=O)NC2CCCCC2)ccc1F
The “hERG current change (%, negative = inhibition) at 10uM” value of the first is lower: -1.88% for the first, -0.27% for the second.

Compared with `Cc1ccc(C(C(=O)NC2CCCC2)N(Cc2ccco2)C(=O)CCC(=O)Nc2cc(C)on2)cc1` (centres unmarked), `Cc1ccc(Cn2ccc(NC(=O)c3noc4c3CCCC4)n2)cc1` is higher in “hERG current change (%, negative = inhibition) at 10uM” value: -29.5% for the first, -13.3% for the second.

First: CC12CC(O)C3c4ccc(O)cc4CCC3C1CCC2=O (centres unmarked)
Second: O=C1CC(c2ccccc2)CC(O)=C1C=NCC1CCCO1 (centres unmarked)
The “hERG current change (%, negative = inhibition) at 10uM” value of the first is higher: 13.7% for the first, 2.77% for the second.

Going from `O=C(Nc1ccccc1)c1ccc(NCCN2C(=O)CCC2=O)c([N+](=O)[O-])c1` to `COc1ccc(NS(=O)(=O)c2cccc(C(=O)Nc3ccccc3C(=O)O)c2)cc1`, the “hERG current change (%, negative = inhibition) at 10uM” value falls from 10.9% to -3.84%.

Going from `CNC(=O)Oc1ccc2c(c1)[C@]1(C)CCN(C)C1N2C.O=S(=O)(O)O` (some centres unmarked) to `COCCCNC(=O)CN(c1cc(Cl)ccc1OC)S(C)(=O)=O`, the “hERG current change (%, negative = inhibition) at 10uM” value rises from 0.0699% to 17.4%.

Compared with `Cc1ccccc1/C=N\NC(=O)c1csnn1`, `Cc1cccc(C)c1N(CC(=O)NCc1ccc(F)cc1)C(=O)c1csnn1` is lower in “hERG current change (%, negative = inhibition) at 10uM” value: 3.01% for the first, -3.82% for the second.

First: Cc1ccc(NC(=O)CSc2nnc([C@@H](N)Cc3c[nH]c4ccccc34)o2)c(C)c1.Cl
Second: Cc1ccc(C)c(-c2nnc(NC(=O)Cc3ccc(F)cc3)o2)c1
The “hERG current change (%, negative = inhibition) at 10uM” value of the first is lower: -13.2% for the first, 19.8% for the second.

First: CC(=O)C1=C(c2ccccc2)NC(=O)NC1c1ccc2c(c1)OCO2.CC(=O)O (centres unmarked)
Second: CC(=O)C1=C(O)C(=O)N(c2ccccn2)C1c1ccc(Cl)cc1 (centres unmarked)
The “hERG current change (%, negative = inhibition) at 10uM” value of the first is lower: 0.994% for the first, 15.8% for the second.

Going from `CCn1c(C(=O)O)c(CC(=O)Nc2ccc(Br)cc2C)c2ccccc21` to `COc1ccc(NC(=O)CSCc2ccccc2C)cc1`, the “hERG current change (%, negative = inhibition) at 10uM” value rises from 12.7% to 14.5%.

Going from `CCCNC(=O)COc1coc(CN2CCN(c3ccc(F)cc3)CC2)cc1=O` to `O=C(CN1CCN(Cc2ccccc2)CC1)Nc1nc2ccccc2s1`, the “hERG current change (%, negative = inhibition) at 10uM” value falls from 2.45% to -68.2%.

Compared with `CCCCN(CC)c1nc(N)c2c(N)nc(OCC)cc2c1C#N`, `CCOC(=O)c1cnc2nc(C)nn2c1N` is lower in “hERG current change (%, negative = inhibition) at 10uM” value: 20.2% for the first, -13.1% for the second.

Compared with `O=C(C1CC1)N1CCc2cc(Br)cc(S(=O)(=O)NCC3COc4ccccc4O3)c21` (centres unmarked), `O=C(CSc1nnc(C2COc3ccccc3O2)o1)N1CCCC1` (centres unmarked) is higher in “hERG current change (%, negative = inhibition) at 10uM” value: -17% for the first, 15.9% for the second.

Going from `COC(=O)CSc1nc2ccc(N)cc2s1` to `CC(=O)Nc1cccc(OCc2cnc(Cl)s2)c1`, the “hERG current change (%, negative = inhibition) at 10uM” value falls from 15.2% to 11.4%.

Going from `Cc1ccccc1OCCC(=O)Nc1cccc(S(=O)(=O)Nc2ccccc2Cl)c1` to `O=S(=O)(Nc1ccccc1O)c1ccc(Cl)nc1`, the “hERG current change (%, negative = inhibition) at 10uM” value rises from -5.41% to 19.1%.

Compared with `Cn1nc(C(F)(F)F)c(CO)c1Sc1ccc(F)cc1`, `Cc1nc2ccccc2n1CC(O)Cn1c(C(F)(F)F)nc2ccccc21` (centres unmarked) is lower in “hERG current change (%, negative = inhibition) at 10uM” value: 15.6% for the first, 7.05% for the second.

Compared with `CC(=O)N1CCN(CCN=CC2=C(O)CC(c3ccc(Cl)cc3)CC2=O)CC1` (centres unmarked), `CC(=O)N1CCN(C(=S)c2ccc([N+](=O)[O-])cc2)CC1` is higher in “hERG current change (%, negative = inhibition) at 10uM” value: -15.7% for the first, -3.4% for the second.

Going from `CCO.Cc1nn(-c2ccccc2)c(Cl)c1C1C(C#N)=C(N)Oc2c1c(C)nn2-c1ccccc1` (centres unmarked) to `Oc1ccc(-c2nnc(-c3ccccc3)c(-c3ccccc3)n2)cc1`, the “hERG current change (%, negative = inhibition) at 10uM” value rises from -5.77% to 10.9%.

First: Cn1c(=O)[nH]c(=O)c2c1nc(Br)n2CCC(=O)c1ccccc1
Second: Cn1c(=O)cc(Nc2ccccc2)[nH]c1=O
The “hERG current change (%, negative = inhibition) at 10uM” value of the first is lower: -12.3% for the first, 41.9% for the second.

Compared with `CCCOc1ccc(-c2c(C(=O)N/N=C/c3ccco3)nnn2-c2nonc2N)cc1`, `CCOC(=O)c1c(N)n(CCCOC(=O)c2ccco2)c2nc3ccccc3nc12` is lower in “hERG current change (%, negative = inhibition) at 10uM” value: 19.5% for the first, -11.9% for the second.

Going from `O=c1ccc2cc(S(=O)(=O)N3CCN(c4cc(Cl)ccc4Cl)CC3)ccc2o1` to `O=C(c1ccc(S(=O)(=O)N2CCCC2)cc1)N1CCCc2ccccc21`, the “hERG current change (%, negative = inhibition) at 10uM” value rises from -20.7% to -15.3%.

Going from `CCn1c(-c2cc(Cl)ccc2OC)n[nH]c1=S` to `CCOc1cc(/C=N/Nc2ncc(C)c(=O)[nH]2)ccc1O`, the “hERG current change (%, negative = inhibition) at 10uM” value rises from 2.07% to 23.2%.

First: CCCCOC(=O)C1=C(N)OC2=C(C(=O)CCC2)[C@]12C(=O)Nc1ccccc12
Second: O=C(CN1C(=O)NC2(CCCC2)C1=O)OCCOc1ccccc1Cl
The “hERG current change (%, negative = inhibition) at 10uM” value of the first is higher: 5.12% for the first, -1.92% for the second.

Compared with `Cc1ccc(CN2CCN(/N=C/c3cccnc3)CC2)cc1`, `O=C(CCNS(=O)(=O)c1ccc(Cl)cc1)NCc1cccnc1` is higher in “hERG current change (%, negative = inhibition) at 10uM” value: -27.9% for the first, 5.49% for the second.

First: N#Cc1nc(-c2ccccc2F)oc1NCc1cccc2c1OCO2
Second: CN(Cc1cccnc1)C(=O)c1ccc2nc(Cc3ccccc3F)oc2c1
The “hERG current change (%, negative = inhibition) at 10uM” value of the first is lower: -24.9% for the first, -14.8% for the second.

Compared with `Cc1ccc(-n2nc3c(c2NC(=O)c2cccs2)CS(=O)(=O)C3)c(C)c1`, `CC1CCCCN1C(=O)COC(=O)c1cc(-c2cccs2)nn1-c1ccccc1` (centres unmarked) is higher in “hERG current change (%, negative = inhibition) at 10uM” value: -4.26% for the first, 0.387% for the second.

Going from `CC(CN1CCC(O)CC1)c1ccccc1` (centres unmarked) to `O=C(CN1CCOCC1)NCCNS(=O)(=O)c1ccccc1`, the “hERG current change (%, negative = inhibition) at 10uM” value falls from 10.6% to -2.72%.

Compared with `CC(C)c1ccc(-c2c(C#N)c(N)nc3c2CCCCC3)cc1`, `Cc1nc2sc(C(c3ccc(Cl)cc3)N3CCOCC3)c(O)n2n1` (centres unmarked) is lower in “hERG current change (%, negative = inhibition) at 10uM” value: 10.8% for the first, -15.5% for the second.

First: C=CCNc1ncnc2ccccc12
Second: Cc1nnc(NCc2cccc(Cl)c2)c2ccccc12
The “hERG current change (%, negative = inhibition) at 10uM” value of the first is higher: 22.5% for the first, -47.5% for the second.

Going from `Cc1ccc2c(C)cc[n+](CCCS(=O)(=O)[O-])c2c1` to `CCC(C(=O)OCC(=O)c1ccc(OC)cc1OC)c1ccccc1` (centres unmarked), the “hERG current change (%, negative = inhibition) at 10uM” value rises from -16.8% to -9.78%.

Compared with `COc1cc(C(=O)OCCCOC(=O)c2cc(OC)c(OC)c(OC)c2)cc(OC)c1OC`, `CCOC(=O)c1cc(NC(=O)c2cccnc2)cc(C(=O)OCC)c1` is higher in “hERG current change (%, negative = inhibition) at 10uM” value: 0.241% for the first, 3.15% for the second.

First: N#Cc1ccc(/C=N/NC(=O)c2cccc(S(=O)(=O)N3CCOCC3)c2)cc1
Second: CCN(CC)S(=O)(=O)c1ccc(C(=O)NCC(c2ccc(OC)cc2)N2CCOCC2)cc1 (centres unmarked)
The “hERG current change (%, negative = inhibition) at 10uM” value of the first is higher: 13.3% for the first, -6.03% for the second.

Going from `CCn1c(C)nnc1SCC(=O)Nc1ccc2c(c1)OCCO2` to `O=C(COC(=O)c1ccco1)Nc1ccc2[nH]c(=O)[nH]c2c1`, the “hERG current change (%, negative = inhibition) at 10uM” value falls from 2.36% to 0.93%.

Compared with `CC(c1ccccc1)N1CCn2c(nc3cc(NS(C)(=O)=O)ccc32)C1` (centres unmarked), `Cc1cccc(/N=C/c2c(O)[nH]c3ccccc23)n1` is higher in “hERG current change (%, negative = inhibition) at 10uM” value: -15.6% for the first, 2.75% for the second.

Going from `CCc1ccc(OC(=O)c2ccn(CC)n2)cc1` to `COc1ccc(Cc2nn3c(-c4ccccc4OC)nnc3s2)cc1`, the “hERG current change (%, negative = inhibition) at 10uM” value falls from -0.408% to -29%.

First: Cc1oc2cc3oc(=O)c(CC(=O)NCCCC(=O)O)c(C)c3cc2c1C
Second: C=C(Cl)COc1cc(C)cc2oc(=O)cc(CC)c12
The “hERG current change (%, negative = inhibition) at 10uM” value of the first is higher: 27.8% for the first, 8.53% for the second.

First: CCn1c(SCc2nc(N)nc(N3CCCCC3)n2)nc2c1c(=O)n(C)c(=O)n2C
Second: Cc1cc(Nc2nc3c(c(=O)n(C)c(=O)n3C)n2C)n(-c2ccc(Cl)cc2)n1
The “hERG current change (%, negative = inhibition) at 10uM” value of the first is lower: -7.16% for the first, 1.53% for the second.

Compared with `COCCCNC(=S)NNC(=O)c1cc(Cl)c(O)c(Cl)c1`, `CCOCCCNCc1c(Cl)cccc1Cl` is lower in “hERG current change (%, negative = inhibition) at 10uM” value: 2.52% for the first, -0.212% for the second.

First: COCC(=O)N1CCC(Oc2ccc(C(=O)NCc3cnc(C)cn3)cc2)CC1
Second: COc1ccc(C(=O)N2CCN(C(=O)CC(C)C)CC2)cc1OC
The “hERG current change (%, negative = inhibition) at 10uM” value of the first is higher: 14.8% for the first, 3.82% for the second.

First: CCc1ccc(CNCCNCC(C)O)cc1.Cl (centres unmarked)
Second: CCOc1ccc(S(=O)(=O)NCCC(=O)NCC(C)(C)N2CCOCC2)cc1
The “hERG current change (%, negative = inhibition) at 10uM” value of the first is lower: -0.67% for the first, 4.75% for the second.

First: O=c1c2ccccc2nnn1CSc1nc2sc3c(c2c(=O)n1CC1CCCO1)CCC3 (centres unmarked)
Second: CN(C(=O)CSc1ncnc2sc3c(c12)CCC3)C1CCS(=O)(=O)C1 (centres unmarked)
The “hERG current change (%, negative = inhibition) at 10uM” value of the first is higher: -3.27% for the first, -11.5% for the second.

First: CS(=O)(=O)c1ccc(C(=O)N(Cc2ccccc2)c2ccccc2)cc1
Second: O=C(/C=C/c1ccc(Cl)cc1)c1ccc([N+](=O)[O-])o1
The “hERG current change (%, negative = inhibition) at 10uM” value of the first is higher: 19.6% for the first, 13.8% for the second.

Going from `Cc1sc(-c2ccccn2)nc1OC(=O)c1ccc(Cl)c(Cl)c1` to `Brc1ccsc1-c1csc(-c2ccncc2)n1`, the “hERG current change (%, negative = inhibition) at 10uM” value rises from 6.24% to 17.3%.

Going from `CCCOc1ccc(/C=C/C(=O)NC2CCCCC2)cc1OC` to `Nc1cc(Cl)ccc1N1CCCCC1`, the “hERG current change (%, negative = inhibition) at 10uM” value rises from 3.73% to 11.3%.

Going from `C/C(=N\Nc1ccc2nncn2n1)c1ccco1` to `Cc1ccc(/C=N/n2c(C)nnc2C)o1`, the “hERG current change (%, negative = inhibition) at 10uM” value falls from 21.1% to 0.719%.

Going from `Cc1cnc(NC(=O)NCC2CCCC(CNC(=O)Nc3ncc(C)s3)C2)s1` (centres unmarked) to `Cn1c(N)c(C(=O)CSc2ccccn2)c(=O)n(C)c1=O`, the “hERG current change (%, negative = inhibition) at 10uM” value falls from 15.5% to 9.55%.
